From paper PMC5836133
This is one part of the list. At the low end of the ranking the order means little.

system: T1, GST-NbGlk1(82-244); experiment: protein-binding microarray; conditions: NbGlk1 is a Golden2-like transcription factor of Nicotiana benthamiana; high values mean tight binding; most listed sequences are background and not binding sites; double strand, one strand shown;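 note: rank-based score ranging −0.5 to +0.5 with E above 0.45 taken as significant binding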
T1 sequence: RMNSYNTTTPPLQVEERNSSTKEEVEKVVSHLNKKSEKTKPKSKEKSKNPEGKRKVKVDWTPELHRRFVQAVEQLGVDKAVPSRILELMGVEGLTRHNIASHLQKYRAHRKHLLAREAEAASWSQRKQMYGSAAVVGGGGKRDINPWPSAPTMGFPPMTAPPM

| Sequence | binding signal [E-score] |
| --- | --- |
| ATTTGTAG | 0.21 |
| CACCAGTG | -0.299 |
| ACGGCGGG | -0.131 |
| ATCGAGAG | 0.0944 |
| ACGGAATC | 0.453 |
| AGATGGAC | -0.292 |
| ATCGGAAA | 0.25 |
| ACGCGCTC | -0.127 |
| CACGTACA | -0.00907 |
| AAGGTAAG | -0.0123 |
| AGCTCCCC | -0.186 |
| AGGATGAA | -0.213 |
| AATGGGTA | -0.0452 |
| AGTTGACC | -0.242 |
| ATGCGCCG | -0.0258 |
| CAAGCACC | -0.168 |
| ATGTTTTA | 0.00726 |
| AAAGCGAC | -0.245 |
| ATCCTGTG | 0.205 |
| ACTCAGAA | 0.122 |
| ATGAACCC | -0.259 |
| CAGCAGCG | -0.155 |
| CAACGATG | -0.0643 |
| AGAATCGA | 0.342 |
| ATGACGGG | -0.223 |

| Sequence | binding signal [E-score] |
| --- | --- |
| CACCCTAA | -0.00986 |
| AGGTCTGC | -0.163 |
| ACTTTTTA | 0.0564 |
| ATCTGAGG | 0.265 |
| ACCAAAAC | -0.0457 |
| AAGCTAAG | -0.23 |
| CACCTTCC | -0.165 |
| CAGCGCGA | 0.038 |
| ACCCTACG | -0.108 |
| AATCGTAG | 0.291 |
| ATACAATG | -0.103 |
| AATGCGGT | -0.077 |
| AATAACGG | 0.0191 |
| AAAATATT | 0.316 |
| AGTCGTCG | -0.221 |
| ATTCTTCC | 0.221 |
| AGCCATAA | -0.11 |
| CAAACATA | -0.0374 |
| AGCTCCCG | -0.156 |
| AATTGAAC | 0.0227 |
| ACGAAAGT | 0.00133 |
| ACTGGCCG | -0.101 |
| ATGTCTCC | -0.0271 |
| AGTCTTCG | -0.155 |
| AGCGGGCC | -0.318 |

| Sequence | binding signal [E-score] |
| --- | --- |
| AACGCGCC | -0.161 |
| AGAGGAAC | -0.262 |
| ACCTAGCA | -0.146 |
| ACCTGTCT | -0.0384 |
| ACTGCTCT | -0.0249 |
| AATGTTAT | 0.109 |
| AACCTCCA | -0.252 |
| ATGTGAAG | 0.107 |
| ACTCTGCC | -0.00764 |
| CAGCAAAA | 0.106 |
| ATAACGAA | 0.184 |
| AGCATTTA | 0.102 |
| AGATCTTG | 0.373 |
| AATTGAGG | 0.0592 |
| ACAATCTA | 0.38 |
| ATAAAGAT | 0.279 |
| AGAACTGA | 0.0646 |
| ACCCAAGG | -0.275 |
| AAATCAGC | 0.363 |
| AGGTCGCG | -0.195 |
| ACAGAGGC | -0.251 |
| CACACCTG | -0.116 |
| AGTATGCA | 0.0583 |
| ATTTAGTG | 0.096 |
| CAAAGGTC | -0.0929 |

| Sequence | binding signal [E-score] |
| --- | --- |
| ACCCAATC | 0.0743 |
| AACCATTA | -0.015 |
| ACGAACGA | 0.0306 |
| AAAGCAGT | -0.158 |
| ACCTTATA | -0.0146 |
| AAGAGCGG | -0.153 |
| ATTACCTC | 0.23 |
| CAGATGCC | -0.0923 |
| CAACCTGC | -0.222 |
| AAGTCCTG | -0.176 |
| AAATTGAC | -0.0724 |
| AGCAGCGA | -0.0508 |
| ACCTTGGC | -0.147 |
| AAGCTGGG | -0.0369 |
| ACCTTACC | -0.141 |
| ATCCATAG | 0.124 |
| CACGATGA | -0.0867 |
| ATTGCATA | 0.29 |
| ACCTCTAT | -0.0919 |
| AGACCTAA | -0.0496 |
| ACTGGCCA | -0.154 |
| AATACGGG | 0.0313 |
| AGATACAG | 0.07 |
| ATGTTGTC | 0.0612 |
| ATAAGAGG | -0.147 |

| Sequence | binding signal [E-score] |
| --- | --- |
| AAATATCT | 0.407 |
| ACAGACCC | -0.185 |
| ATAAGCGC | -0.0643 |
| ACGGAGAC | -0.125 |
| AGATCGTA | 0.283 |
| CACTCCCC | -0.126 |
| AAAACCAT | -0.0642 |
| ACCTGAAA | 0.067 |
| AGCCGAGC | -0.234 |
| ACCTATAT | 0.113 |
| ACGCTTAG | -0.08 |
| AGCGGCTA | -0.259 |
| ATCCCAGA | 0.276 |
| CACGAGCG | -0.16 |
| ACTCGATG | -0.16 |
| ATCGGGGC | 0.0347 |
| ACTAAAGG | -0.105 |
| AGTGAGGA | -0.115 |
| ATCTCCGG | 0.318 |
| AAAGTCTA | -0.0963 |
| AGGAAAGG | -0.269 |
| ATATGTGC | 0.149 |
| AATAAGGG | -0.0847 |
| AATCTGTG | 0.411 |
| CACTGCCG | -0.121 |

| Sequence | binding signal [E-score] |
| --- | --- |
| AACGGACT | -0.221 |
| ATTAATTG | 0.165 |
| AGGAACCT | -0.235 |
| AGGGCCAT | -0.307 |
| ATAAGTAC | 0.0637 |
| CAATTAAC | -0.00938 |
| CAGCAGAA | -0.0446 |
| CAAGTGGA | -0.107 |
| ATCCGGAT | 0.422 |
| AATTCGTG | -0.0511 |
| AATGAGAG | -0.121 |
| CAACGGCG | -0.176 |
| ATGTTCAC | -0.0288 |
| AATTTGTC | 0.123 |
| CAATGAAG | 0.0497 |
| AGTGTATG | 0.0235 |
| CAACTAAA | 0.0955 |
| ATGTGTCG | -0.0713 |
| AGCATGCT | -0.215 |
| ATGTACCA | 0.00685 |
| ACTAGTAG | -0.125 |
| ATCCTCCC | 0.225 |
| CAGCACGC | -0.218 |
| AAGTTTGC | -0.0642 |
| CACGGGCA | -0.173 |

| Sequence | binding signal [E-score] |
| --- | --- |
| AAGTAGGG | -0.0233 |
| CAACTAGA | 0.0228 |
| AAAGGATG | -0.0491 |
| ATCGAGAA | 0.236 |
| ACGTGGCG | -0.0601 |
| AGACCTGG | -0.165 |
| AGAAAAGC | -0.0247 |
| ACCCCTCC | -0.2 |
| AGGAGAGC | -0.327 |
| AATAGGAT | 0.218 |
| AACAGCGT | -0.0802 |
| CACGCACG | -0.0203 |
| ATCACACG | 0.129 |
| AGAGAGGC | -0.403 |
| AGTCCCGC | -0.256 |
| AGGGGATG | -0.257 |
| AAAGCGAA | 0.0452 |
| ACCCACGA | 0.0368 |
| CAGCGTAG | -0.177 |
| AGCGCCTA | -0.129 |
| AAACAGCA | -0.0627 |
| AGCGTTAA | 0.00763 |
